Laboratory results as given in publication PMC6919601, “Identification of Plasmodium dipeptidyl aminopeptidase allosteric inhibitors by high throughput screening” (PLoS ONE, 2019).
Values joined by “and” are separate entries in the source; they are usually repeats but may differ in a detail not shown here. Identical values can stand only once. Hit rate of the full screen: of about 110,000 compounds, about 230 (0.21%) showed an effect of 50% or more. The list shows a part of the results.

target: DPAP1 (Plasmodium falciparum, UniProt Q8IIJ9); assay: primary screen, percent inhibition; read by cleavage of a fluorogenic dipeptide substrate; higher = more effect of the substance; set-up: species or system P. falciparum D10 trophozoite lysates; single well
Sequence (Q8IIJ9 whole entry, looked up): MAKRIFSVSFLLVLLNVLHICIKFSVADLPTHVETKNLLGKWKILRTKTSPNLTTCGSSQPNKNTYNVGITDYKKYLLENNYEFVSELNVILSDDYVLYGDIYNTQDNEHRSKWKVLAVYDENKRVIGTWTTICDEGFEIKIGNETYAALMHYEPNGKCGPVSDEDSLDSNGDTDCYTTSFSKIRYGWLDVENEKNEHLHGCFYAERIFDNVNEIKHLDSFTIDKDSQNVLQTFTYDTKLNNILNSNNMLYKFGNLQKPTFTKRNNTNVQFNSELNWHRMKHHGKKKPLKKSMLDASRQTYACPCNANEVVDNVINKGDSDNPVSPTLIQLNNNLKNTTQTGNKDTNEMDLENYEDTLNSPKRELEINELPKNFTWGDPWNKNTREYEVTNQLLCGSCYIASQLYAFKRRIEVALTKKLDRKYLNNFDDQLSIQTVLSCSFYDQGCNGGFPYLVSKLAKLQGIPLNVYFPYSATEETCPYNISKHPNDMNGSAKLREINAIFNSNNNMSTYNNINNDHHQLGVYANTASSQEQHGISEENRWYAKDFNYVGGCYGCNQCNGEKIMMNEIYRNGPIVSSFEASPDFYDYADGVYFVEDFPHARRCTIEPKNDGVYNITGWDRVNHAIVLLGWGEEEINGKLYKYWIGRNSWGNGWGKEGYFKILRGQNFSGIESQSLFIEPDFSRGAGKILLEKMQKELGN
Procedure: HTS was performed in black 384-well plates. The first and last two columns of each plate contained our negative (DMSO) and positive (10 μM JCP410) controls, and the 20 central columns the test compounds at 10 μM. Compounds were first diluted 50-fold into assay buffer (50 mM sodium acetate, 5 mM MgCl2, 10 mM β-mercaptoethanol, and 0.1% CHAPS, pH 5.5) from a 10 mM DMSO stock plates. One microliter of this 200 μM intermediate stock plate was dispensed into the assay plate. […] After 30 min, the reaction was quenched with 20 μL of 0.5 M acetic acid, and the fluorescent intensity measured at 523 nm (λex = 492 nm) using an Analyst HT multimode plate reader (Molecular Devices).
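Also: 30 min substrate incubation versus DMSO and 10 µM JCP410 controls.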

Structure (SMILES)	% Inhibition @ 10 uM
COc1ccc(-c2nc3c4cnn(-c5ccc(OC)cc5)c4ncn3n2)cc1	-2.85%
Cc1cccc(Oc2nc3c(C)cccn3c(=O)c2/C=C(\C#N)C(=O)NCCc2ccccc2)c1C	0.315%
Cc1ccc(/C=C2/SC(N3CCN(C)CC3)=NC2=O)cc1	3.72%
CCOc1ccc(NC(=O)/C(C#N)=C\c2cn(CC)c3ccccc23)cc1	5.2%
O=S(=O)(c1ccc(Cl)cc1)c1nc(-c2cccc(Br)c2)oc1N1CCOCC1	-4.93%
Cc1ccc(S(=O)(=O)/C(C#N)=C/c2c(Oc3ccc(Cl)c(C)c3)nc3ccccn3c2=O)cc1	17.7%
COC(=O)c1ccc(-c2nc(COc3cc(C)c(Cl)c(C)c3)no2)cc1	0.758%
N#CCNC(=O)[C@H](Cc1nccs1)NC(=O)c1ccc(-c2ccccc2Cl)nc1	-6.98%
Cc1ccc2c(c1)-c1onc(C(=O)N3CCC4(CC3)OCCO4)c1CO2	0.0281%
CNC(=O)CN(c1ccc(F)cc1)S(=O)(=O)c1ccccc1	-1.42%
CCOc1ccc(CNC(=O)CCC(=O)N2CCSc3ncccc32)cc1OC	0.882%
O=C(CCS(=O)(=O)Cc1ccc(Cl)cc1)NCc1ccc2c(c1)OCO2	3.79%
O=C(NCC1CCCO1)c1ccc(CNS(=O)(=O)c2cccc(C(F)(F)F)c2)cc1 (centres unmarked)	-1.55%
COc1ccc(S(=O)(=O)CCO)cc1N	-4.5%
Cc1cc(C)n(-c2nc(O)cc(-c3ccccc3)n2)n1	-6.01%
CCOCCCNC(=O)COc1ccc(Cl)cc1	-3.53%
COc1ccc(C(=O)Nc2cccc(NC(=O)c3ccc(OC)cc3OC)n2)c(OC)c1	0.389%
Nn1c(SCc2ccccc2)nnc1C(F)(F)F	-3.41%
CC1(C)CC(=O)c2sc3nc(-c4ccc(Cl)cc4)cn3c2C1	-1.36%
CC1=C(C(=O)OCCOC(C)C)C(c2ccccc2C)CC(=O)N1 (centres unmarked)	-6.14%
Cc1c(C(=O)NCC(C)c2ccccc2)oc2c1-c1n[nH]cc1CC2 (centres unmarked)	5.42%
Cc1ccccc1C(=O)c1cccn1CC(=O)N1CC(C)CC(C)C1 (centres unmarked)	-5.89%
CCC(C)Sc1nc(O)cc(=O)n1-c1ccccc1 (centres unmarked)	1.83%
COC(=O)c1cc(S(=O)(=O)N2CC=C(c3ccccc3)CC2)c[nH]1	2.81%
Cc1cc(OCC(=O)N2CCN(c3ccccn3)CC2)ccc1Br	3.66%
CCn1c(C(=O)O)c(C=O)c2ccccc21	1.63%

Structure (SMILES)	% Inhibition @ 10 uM
CCOC(=O)c1cc(-c2ccc(OC)c(S(=O)(=O)NCCN(C)C)c2)on1	0.92%
CCCCN1C(C)=CC(=C2C(=O)NC(=O)NC2=O)C=C1C(F)(F)F	21.7%
O=C(O)c1cnc2ncnn2c1O	4.58%
CC1=C(C)CC2C(=O)N(Cc3ccccc3)C(=O)C2C1 (centres unmarked)	3.53%
CCCCO/C(O)=C1\C(C)=NC2=C(C(=O)CCC2)C1c1ccc(OC)c(OC)c1OC (centres unmarked)	16.8%
Cc1ccccc1-n1c(=O)[nH]c(O)c(C2NCCc3ccccc32)c1=O (centres unmarked)	-3.85%
COCCCn1c2c(c(=O)[nH]c1=O)C(c1ccc(Cl)cc1Cl)C1=C(O)c3ccccc3C1=N2 (centres unmarked)	2.25%
CC1CN(c2ccc([N+](=O)[O-])c(N3CCOCC3)c2)CCN1 (centres unmarked)	-4.8%
O=c1/c(=C/C=C/c2ccccc2)sc2nc3ccccc3n12	4.95% and -4.01%
CCn1c(CCc2ccccc2)nnc1SCc1nc(-c2ccc(OC)cc2)no1	-10.1%
CN1C(=O)C(=C(NCc2ccccc2)c2ccccc2)C(=O)N(C)C1=O	-0.522%
COc1ccc(Cl)cc1S(=O)(=O)Oc1ccc2ccccc2c1	1.67%
COc1cc(/C=C2/N=C(C3CCCCC3)OC2=O)cc(OC)c1OC	10.7%
CCOc1cc(CN2C[C@@H]3C[C@H](C2)c2cccc(=O)n2C3)ccc1OC	-2.48%
O=C(NC(=O)c1c(F)cccc1F)Nc1ccc(Cl)cc1	1.48%
C/C=C/C=C/C(=O)Nc1ccc2nc(SC)sc2c1	18.3%
COc1cc(/C=C2\SC(=S)N(CC(=O)O)C2=O)ccc1O	-6.09%
Cc1[nH]c2ccc(C(=O)N3CCc4ccccc4C3)cc2c1C	4.92%
CCOC(=O)N1CCN(C(=O)c2ccc(CSc3nc4ccncc4[nH]3)cc2)CC1	3.4%
COc1ccccc1-c1c(C)nn2c(SCC(=O)NCc3ccccn3)cc(C)nc12	-5.55%
CCCn1c2ccccc2c2cc(C(=O)O)ccc21	3.87%
COc1ccc(-c2csc(N3C(=N)SCC3=O)n2)cc1	0.161%
COc1ccc(-c2csc(Nc3cccnc3)n2)cc1	7.97%
Cc1ccc(Cl)cc1N1CCN(C(=O)c2ccccc2CC(=O)O)CC1	0.528%
NC(=O)COc1ccc(/C=C2\S/C(=N/c3ccccc3)N(C3CCCC3)C2=O)cc1	5.39%
Cc1sc(NC(=O)c2ccc(C(C)(C)C)cc2)c(C(N)=O)c1C	3.72%

Structure (SMILES)	% Inhibition @ 10 uM
O=c1oc2ccccc2c(O)c1CN1CCCC1	-5.41%
CC(C)Cn1cnc2sc3c(c2c1=N)CCCCC3	0.755%
O=C(NC1CCSC1=O)c1ccc(Cl)cc1 (centres unmarked)	1.91%
Cc1ccc(C(=O)CC2(O)C(=O)Nc3ccc(Br)cc32)cc1 (centres unmarked)	-3.83%
Cc1ccccc1Cn1c(C(=O)O)c(CNCCN2CCOCC2)c2ccccc21	-1.44%
CN1C2=C(C(=O)CC(C)(C)C2)C(c2cc(Cl)ccc2O)C2=C1CC(C)(C)CC2=O	5.09%
c1cc2[nH]ncc2cc1NCC1CCCCC1	0.217%
Cc1c(NC(=O)c2cc3ccccc3oc2=O)c(=O)n(-c2ccccc2)n1C	4.6%
COc1cccc(C2CC3=Nc4ccccc4NC(c4cccs4)C3=C(O)C2)c1 (centres unmarked)	0.851%
COc1cc(C2CC(=O)N3CN(Cc4ccco4)CSC3=C2C#N)ccc1O (centres unmarked)	17.5%
CCC(C)N1C(=O)S/C(=C/c2ccc(C(=O)O)cc2)C1=O (centres unmarked)	1.31%
Nc1ccc(Cc2ccc(NC(=O)c3cccnc3)cc2)cc1	-1.17%
CC(C)CN1C(=O)NC(NC(=O)c2ccccc2F)(C(F)(F)F)C1=O (centres unmarked)	5.12%
COc1cc(C2C(C#N)=C(N)OC3=C2C(=O)CC(C)(C)C3)cc2c1OCO2 (centres unmarked)	2.38%
CCOc1ccc(C(=O)Nc2ccc(C)cc2Br)cc1	14.3%
COc1ccccc1NC(=O)C1=C(C)N=C2CC(C)(C)CC(O)=C2C1c1cccc(Br)c1 (centres unmarked)	-0.941%
O=S(=O)(Nc1nc2ccccc2nc1NCc1ccccc1)c1ccc(Cl)cc1	0.275%
COc1ccc(C(=O)Nc2nc3nccc(-c4ccccc4)n3n2)cc1	-1.28%
Cn1c(=O)c2c(nc(Oc3ccc(C(C)(C)C)cc3)n2C)n(C)c1=O	4.74%
CC(=O)N1CCN(c2ccc(NCc3cccc4ccccc34)cc2)CC1	-4.21%
N#Cc1cc2c(nc1SCC(=O)N1CCOCC1)CCCCC2	2.7%
CCCNC(=O)c1ccc(-c2nn(C)c(=O)c3ccccc23)cc1	0.315%
C=CCOc1ccc(/C=c2\sc3nc(-c4ccccc4)nn3c2=O)cc1OC	1.91%
O=S1(=O)N=C(Nc2nc(-c3ccc(Cl)cc3)cs2)c2ccccc21	5.12%
CCN1C(=O)CC(c2ccco2)=Nc2ccccc21	-2.64% and -0.519%
O=C(Cn1ncc2c1-c1ccccc1OC2)NC1CCCc2ccccc21 (centres unmarked)	2.6%

Structure (SMILES)	% Inhibition @ 10 uM
CCCN1CCC(Nc2ccc3c[nH]nc3c2)CC1	-3.6%
Cc1nn(-c2ccccc2)c(C)c1CC(=O)NCCc1ccccc1	2.38%
CCCC1=NC(c2ccccc2)(c2ccccc2)c2ccccc2O1	-0.712%
COc1ccc(C(=O)Nc2nncs2)c(OC)c1	-7.23%
Cc1nc2c(c(C)nn2C)c(C)c1CCC(=O)NCc1ccco1	-4.24%
CSc1ccc(CN2CCN(c3ccccc3F)CC2)cc1	0.708%
NC(=O)CN1CCn2c3c(c4cc(C5CCCCC5)ccc42)CCCC31 (centres unmarked)	0.486%
O=[N+]([O-])c1ccc(CN2CCOCC2)cc1	2.7%
CCOC(=O)C1=C(C)N=c2s/c(=C\c3ccc(N(CC)CC)cc3)c(=O)n2C1c1ccc(Cl)cc1 (centres unmarked)	-3.44%
O=C(Cn1ncc2c(Cl)cccc21)NCCc1ccccc1	-1.11%
Cc1cccc2c1Oc1nc(-c3ccccc3)nc(O)c1C2	5.48%
COC(=O)c1c(C)nn(-c2ccccc2)c1NC(=O)c1ccc(F)cc1	-7.23%
CC(C)(C)c1ccc(OCCOCCN2CCNCC2)cc1	-6.75%
O=Cc1ccc(OCc2ccccc2F)cc1	-0.597%
NCc1nnnn1-c1ccccc1	2.19%
CC(CCN1CCCC(C(N)=O)C1)c1ccccc1 (centres unmarked)	0.217%
Cc1coc2c(C)c3oc(=O)c(CC(=O)NCc4ccc(F)cc4)c(C)c3cc12	2.54%
Cc1c(C(N)=O)c(-c2ccccc2)nn1-c1ccccc1	3.48%
CN(C)CCCNC(=O)/C(=C\c1ccc(-c2ccc(Cl)cc2)o1)NC(=O)c1ccccc1	-12.7%
Clc1cccc(OCCCN2CCCC2)c1	1.35%
COCCCNc1nc2c(c(=O)n(C)c(=O)n2C)n1Cc1c(Cl)cccc1Cl	-5.9%
O=C(NC1CCCCCC1)c1cccc([N+](=O)[O-])c1	-2.6%
COc1ccc(CN2CCN(c3cccc(Cl)c3)CC2)cc1Br	1.17%
